# Measurements taken from the supplement of paper PMC8728848.
# Some of the results follow.
# B1: DrGRIFIN (Danio rerio), Q6DGJ1 (protein)
# chain: MTLRFEASCPDGLCPGWSVILKGETPPEASKFEINFLCDRDDRVAFHFNPRFTESDIICNSYMANRWGQEERCNHFPLGVEEPFQIEIYSDNDHFHVYIDKAKVMQYKHRVEDLKTITKLQVVNDVKISSLEITKKLFY
# How the values were obtained:
# Assay in all cases: glycan array binding signal (z-score within array); higher = stronger binding
# Conditions in all cases: glycan notation: IUPAC condensed, linker removed
# [1] = molecular target: Fuc(a1-2)Gal
# Summary of the method: (§1)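 The binding signal is a Z-score computed within each array and averaged over linkers. Arrays of the same protein sequence at different concentrations or buffers were also averaged together. Data originate from 3228 arrays in the Consortium for Functional Glycomics database, kept only where the protein sequence was available.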
# [2] = molecular target: Fuc(a1-2)Gal(b1-3)GalNAc
# Summary of the method: as §1
# [3] = molecular target: Fuc(a1-2)Gal(b1-3)GalNAc(a1-3)[Fuc(a1-2)]Gal(b1-4)Glc
# Summary of the method: as §1
# [4] = molecular target: Fuc(a1-2)Gal(b1-3)GalNAc(a1-3)[Fuc(a1-2)]Gal(b1-4)GlcNAc
# Summary of the method: as §1
# [5] = molecular target: Fuc(a1-2)Gal(b1-3)GalNAc(b1-3)Gal
# Summary of the method: as §1
# [6] = molecular target: Fuc(a1-2)Gal(b1-3)GalNAc(b1-3)Gal(a1-4)Gal(b1-4)Glc
# Summary of the method: as §1
# [7] = molecular target: Fuc(a1-2)Gal(b1-3)GalNAc(b1-4)[Neu5Ac(a2-3)]Gal(b1-4)Glc
# Summary of the method: as §1
# [8] = molecular target: Fuc(a1-2)Gal(b1-3)GlcNAc
# Summary of the method: as §1
# [9] = molecular target: Fuc(a1-2)Gal(b1-3)GlcNAc(b1-2)Man(a1-3)[Fuc(a1-2)Gal(b1-3)GlcNAc(b1-2)Man(a1-6)]Man(b1-4)GlcNAc(b1-4)GlcNAc
# Summary of the method: as §1
# [10] = molecular target: Fuc(a1-2)Gal(b1-3)GlcNAc(b1-2)Man(a1-3)[Fuc(a1-2)Gal(b1-3)GlcNAc(b1-2)Man(a1-6)]Man(b1-4)GlcNAc(b1-4)[Fuc(a1-6)]GlcNAc
# Summary of the method: as §1
# [11] = molecular target: Fuc(a1-2)Gal(b1-3)GlcNAc(b1-3)Gal(b1-4)Glc
# Summary of the method: as §1
# [12] = molecular target: Fuc(a1-2)Gal(b1-3)GlcNAc(b1-3)GalNAc
# Summary of the method: as §1
# [13] = molecular target: Fuc(a1-2)Gal(b1-3)GlcNAc(b1-3)[Fuc(a1-2)Gal(b1-3)GlcNAc(b1-6)]GalNAc
# Summary of the method: as §1
# [14] = molecular target: Fuc(a1-2)Gal(b1-3)GlcNAc(b1-3)[Gal(b1-4)GlcNAc(b1-6)]Gal(b1-4)Glc
# Summary of the method: as §1
# [15] = molecular target: Fuc(a1-2)Gal(b1-3)GlcNAc(b1-3)[Neu5Ac(a2-6)Gal(b1-4)GlcNAc(b1-6)]Gal(b1-4)Glc
# Summary of the method: as §1
# [16] = molecular target: Fuc(a1-2)Gal(b1-3)GlcNAc6S
# Summary of the method: as §1
# [17] = molecular target: Fuc(a1-2)Gal(b1-3)[Fuc(a1-4)]GlcNAc
# Summary of the method: as §1
# [18] = molecular target: Fuc(a1-2)Gal(b1-3)[Fuc(a1-4)]GlcNAc(b1-2)Man(a1-3)[Fuc(a1-2)Gal(b1-3)[Fuc(a1-4)]GlcNAc(b1-2)Man(a1-3)]Man(b1-4)GlcNAc(b1-4)GlcNAc
# Summary of the method: as §1
# [19] = molecular target: Fuc(a1-2)Gal(b1-3)[Fuc(a1-4)]GlcNAc(b1-2)Man(a1-3)[Fuc(a1-2)Gal(b1-3)[Fuc(a1-4)]GlcNAc(b1-2)Man(a1-6)]Man(b1-4)GlcNAc(b1-4)[Fuc(a1-6)]GlcNAc(b1-4)[Fuc(a1-6)]GlcNAc
# Summary of the method: as §1
# [20] = molecular target: Fuc(a1-2)Gal(b1-3)[Fuc(a1-4)]GlcNAc(b1-3)[Fuc(a1-3)[Gal(b1-4)]GlcNAc(b1-6)]Gal(b1-4)Glc
# Summary of the method: as §1
# [21] = molecular target: Fuc(a1-2)Gal(b1-3)[Fuc(a1-4)]GlcNAc(b1-3)[Gal(b1-4)GlcNAc(b1-6)]Gal(b1-4)Glc
# Summary of the method: as §1
# [22] = molecular target: Fuc(a1-2)Gal(b1-4)Glc
# Summary of the method: as §1
# [23] = molecular target: Fuc(a1-2)Gal(b1-4)Glc6S
# Summary of the method: as §1
# [24] = molecular target: Fuc(a1-2)Gal(b1-4)GlcNAc
# Summary of the method: as §1
# [25] = molecular target: Fuc(a1-2)Gal(b1-4)GlcNAc(b1-2)Man
# Summary of the method: as §1
# [26] = molecular target: Fuc(a1-2)Gal(b1-4)GlcNAc(b1-2)Man(a1-3)[Fuc(a1-2)Gal(b1-4)GlcNAc(b1-2)Man(a1-6)]Man(b1-4)GlcNAc(b1-4)GlcNAc
# Summary of the method: as §1
# [27] = molecular target: Fuc(a1-2)Gal(b1-4)GlcNAc(b1-2)Man(a1-3)[Fuc(a1-2)Gal(b1-4)GlcNAc(b1-2)Man(a1-6)]Man(b1-4)GlcNAc(b1-4)[Fuc(a1-6)]GlcNAc
# Summary of the method: as §1
# [28] = molecular target: Fuc(a1-2)Gal(b1-4)GlcNAc(b1-2)[Fuc(a1-2)Gal(b1-4)GlcNAc(b1-4)]Man(a1-3)[Fuc(a1-2)Gal(b1-4)GlcNAc(b1-2)Man(a1-6)]Man(b1-4)GlcNAc(b1-4)GlcNAc
# Summary of the method: as §1
# [29] = molecular target: Fuc(a1-2)Gal(b1-4)GlcNAc(b1-3)Gal(b1-4)GlcNAc
# Summary of the method: as §1
# [30] = molecular target: Fuc(a1-2)Gal(b1-4)GlcNAc(b1-3)Gal(b1-4)GlcNAc(b1-2)Man(a1-3)[Fuc(a1-2)Gal(b1-4)GlcNAc(b1-3)Gal(b1-4)GlcNAc(b1-2)Man(a1-6)]Man(b1-4)GlcNAc(b1-4)GlcNAc
# Summary of the method: as §1
# [31] = molecular target: Fuc(a1-2)Gal(b1-4)GlcNAc(b1-3)Gal(b1-4)GlcNAc(b1-3)Gal(b1-4)GlcNAc
# Summary of the method: as §1
# [32] = molecular target: Fuc(a1-2)Gal(b1-4)GlcNAc(b1-3)GalNAc
# Summary of the method: as §1
# [33] = molecular target: Fuc(a1-2)Gal(b1-4)GlcNAc(b1-3)[Fuc(a1-2)Gal(b1-4)GlcNAc(b1-6)]GalNAc
# Summary of the method: as §1
# [34] = molecular target: Fuc(a1-2)Gal(b1-4)GlcNAc(b1-3)[Fuc(a1-3)[Gal(b1-4)]GlcNAc(b1-6)]Gal(b1-4)Glc
# Summary of the method: as §1
# [35] = molecular target: Fuc(a1-2)Gal(b1-4)GlcNAc(b1-6)GalNAc
# Summary of the method: as §1
# [36] = molecular target: Fuc(a1-2)Gal(b1-4)GlcNAc6S
# Summary of the method: as §1
# [37] = molecular target: Fuc(a1-2)Gal(b1-4)[Fuc(a1-3)]GlcNAc
# Summary of the method: as §1
# [38] = molecular target: Fuc(a1-2)Gal(b1-4)[Fuc(a1-3)]GlcNAc(b1-2)Man(a1-3)[Fuc(a1-2)Gal(b1-4)[Fuc(a1-3)]GlcNAc(b1-2)Man(a1-6)]Man(b1-4)GlcNAc(b1-4)[Fuc(a1-6)]GlcNAc
# Summary of the method: as §1
# [39] = molecular target: Fuc(a1-2)Gal(b1-4)[Fuc(a1-3)]GlcNAc(b1-2)[Fuc(a1-2)Gal(b1-4)[Fuc(a1-3)]GlcNAc(b1-4)]Man(a1-3)[Fuc(a1-2)Gal(b1-4)[Fuc(a1-3)]GlcNAc(b1-2)Man(a1-6)]Man(b1-4)GlcNAc(b1-4)GlcNAc
# Summary of the method: as §1
# [40] = molecular target: Fuc(a1-2)Gal(b1-4)[Fuc(a1-3)]GlcNAc(b1-3)Gal(b1-4)[Fuc(a1-3)]GlcNAc
# Summary of the method: as §1
# [41] = molecular target: Fuc(a1-2)Gal(b1-4)[Fuc(a1-3)]GlcNAc(b1-3)Gal(b1-4)[Fuc(a1-3)]GlcNAc(b1-3)Gal(b1-4)[Fuc(a1-3)]GlcNAc
# Summary of the method: as §1
# [42] = molecular target: Fuc(a1-2)Gal(b1-4)[Fuc(a1-3)]GlcNAc(b1-3)GalNAc
# Summary of the method: as §1
# [43] = molecular target: Fuc(a1-2)Gal(b1-4)[Fuc(a1-3)]GlcNAc(b1-3)[Neu5Ac(a2-6)Gal(b1-4)GlcNAc(b1-6)]Gal(b1-4)Glc
# Summary of the method: as §1
# [44] = molecular target: Fuc(a1-2)Gal3S(b1-4)GlcNAc
# Summary of the method: as §1
# [45] = molecular target: Fuc(a1-2)Gal6S(b1-3)GlcNAc
# Summary of the method: as §1
binder,measurement,setting,value
B1,glycan array binding signal (z-score),[1],-0.212
same,glycan array binding signal (z-score),[2],-0.18
same,glycan array binding signal (z-score),[3],-0.088
same,glycan array binding signal (z-score),[4],-0.21
same,glycan array binding signal (z-score),[5],-0.216
same,glycan array binding signal (z-score),[6],-0.099
same,glycan array binding signal (z-score),[7],-0.2
same,glycan array binding signal (z-score),[8],-0.16
same,glycan array binding signal (z-score),[9],-0.16
same,glycan array binding signal (z-score),[10],-0.196
same,glycan array binding signal (z-score),[11],-0.11
same,glycan array binding signal (z-score),[12],-0.134
same,glycan array binding signal (z-score),[13],0.002
same,glycan array binding signal (z-score),[14],-0.217
same,glycan array binding signal (z-score),[15],-0.195
same,glycan array binding signal (z-score),[16],-0.201
same,glycan array binding signal (z-score),[17],-0.218
same,glycan array binding signal (z-score),[18],-0.166
same,glycan array binding signal (z-score),[19],-0.165
same,glycan array binding signal (z-score),[20],-0.188
same,glycan array binding signal (z-score),[21],-0.128
same,glycan array binding signal (z-score),[22],-0.152
same,glycan array binding signal (z-score),[23],-0.101
same,glycan array binding signal (z-score),[24],-0.121
same,glycan array binding signal (z-score),[25],-0.193
same,glycan array binding signal (z-score),[26],-0.103
same,glycan array binding signal (z-score),[27],-0.094
same,glycan array binding signal (z-score),[28],-0.158
same,glycan array binding signal (z-score),[29],-0.145
same,glycan array binding signal (z-score),[30],-0.016
same,glycan array binding signal (z-score),[31],-0.11
same,glycan array binding signal (z-score),[32],-0.167
same,glycan array binding signal (z-score),[33],-0.134
same,glycan array binding signal (z-score),[34],-0.143
same,glycan array binding signal (z-score),[35],-0.198
same,glycan array binding signal (z-score),[36],-0.16
same,glycan array binding signal (z-score),[37],-0.168
same,glycan array binding signal (z-score),[38],0.046
same,glycan array binding signal (z-score),[39],-0.182
same,glycan array binding signal (z-score),[40],-0.116
same,glycan array binding signal (z-score),[41],-0.183
same,glycan array binding signal (z-score),[42],-0.178
same,glycan array binding signal (z-score),[43],-0.166
same,glycan array binding signal (z-score),[44],-0.171
same,glycan array binding signal (z-score),[45],-0.141
